# Source: the supplement of paper PMC3334620
# Whole data set: some 33,000 sequences, median “E-score (-0.5 to 0.5)” near -0.012, cut for the highest 2% near 0.27. The list shows a part of the results.
# Molecular target: T1, Vhr1 (UniProt P40522)
# T1 sequence: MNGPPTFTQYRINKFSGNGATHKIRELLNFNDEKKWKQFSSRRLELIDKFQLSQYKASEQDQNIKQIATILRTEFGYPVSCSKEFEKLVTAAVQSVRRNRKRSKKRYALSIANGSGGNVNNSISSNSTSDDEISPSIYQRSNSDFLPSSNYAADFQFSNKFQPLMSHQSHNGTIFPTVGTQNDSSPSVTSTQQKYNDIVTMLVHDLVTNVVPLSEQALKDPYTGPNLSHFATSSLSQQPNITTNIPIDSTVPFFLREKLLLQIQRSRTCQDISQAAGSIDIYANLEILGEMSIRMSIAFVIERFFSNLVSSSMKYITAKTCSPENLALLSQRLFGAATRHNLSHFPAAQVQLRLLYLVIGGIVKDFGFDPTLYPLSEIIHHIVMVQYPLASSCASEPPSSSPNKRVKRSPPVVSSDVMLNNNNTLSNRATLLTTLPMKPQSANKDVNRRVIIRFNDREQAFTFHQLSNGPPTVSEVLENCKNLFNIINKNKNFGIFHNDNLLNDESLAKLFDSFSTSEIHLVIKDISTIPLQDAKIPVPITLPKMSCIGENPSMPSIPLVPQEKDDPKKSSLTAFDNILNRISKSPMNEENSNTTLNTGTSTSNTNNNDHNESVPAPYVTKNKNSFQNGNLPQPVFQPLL
# Test: PBM E-score (8-mer binding enrichment) (E-score (-0.5 to 0.5)); higher = stronger / more preferred TF binding; most listed sequences are background and not binding sites
# Conditions: protein concentration: 200 nM; construct: GST-full length
# Method: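 Universal 'all 10-mer' protein binding microarrays (Agilent AMADID 015681) probed with GST-tagged S. cerevisiae TFs (full-length or DBD) made by in vitro transcription/translation (PURExpress), about 100-200 nM. Bound TF was detected with fluorescent anti-GST. Each ungapped 8-mer (which stands for itself and its reverse complement) is scored by the PBM enrichment score (E-score), a modified Wilcoxon-Mann-Whitney statistic from -0.5 to +0.5, computed with the Universal PBM Analysis Suite. Scale: above 0.35 generally sequence-specific binding.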
row,Sequence,PBM E-score
1,ATTTCTTG,-0.159
2,GTAAGCCA,-0.0205
3,CATCATGC,0.201
4,AAGCGGAA,-0.115
5,GACGCAAC,-0.169
6,AAGTCCAT,-0.148
7,ACAAGGTC,0.0988
8,ATCCATCC,0.156
9,CCCGGCAC,-0.144
10,CCCAAGTA,-0.0374
11,CTAGCAGA,-0.204
12,AATCAAGG,0.0679
13,CTGAGGGA,-0.142
14,GCAGTTTA,-0.221
15,GTACGCAA,-0.0437
16,ATTTAAAA,-0.063
17,GTCAAGAA,0.0425
18,ATTGTGAC,0.216
19,GGGACCTA,-0.0807
20,CGCACACG,0.0985
21,AGAGTCTA,-0.281
22,CGAACCTC,0.062
23,AACGGTGC,-0.231
24,ACTGGGCC,-0.169
25,CCCAAACC,-0.0342

row,Sequence,PBM E-score
1,CAATAATA,0.00445
2,AAGTGGAA,-0.00351
3,CAGCCTTA,-0.297
4,TCATTCAA,-0.00198
5,GGAGTGAA,-0.137
6,GTGTCGGA,0.155
7,TAGAAGCA,-0.107
8,AGGTGTTG,-0.0372
9,AACCATAA,0.162
10,ACCGCACC,0.148
11,AGCACCGC,0.0822
12,AGCTGAAG,-0.228
13,CTGGCAGC,-0.118
14,ACGCGTCC,-0.0535
15,AGCATTTA,-0.14
16,AGACTTGC,-0.249
17,CGGATCCC,-0.0949
18,ACAATGGC,0.0588
19,GTACTGAA,0.143
20,CTGGCCGA,-0.131
21,CAATCATG,0.289
22,ACCATGCA,0.11
23,GATTCGCA,0.276
24,CAATCATC,0.284
25,GCGAGACA,0.164

row,Sequence,PBM E-score
1,AGTTCTGG,0.115
2,ACCGCCAT,0.156
3,AAGCCCAC,0.0299
4,CTTCGCCA,-0.0994
5,ACGTCCCG,-0.193
6,GATAGGCC,-0.2
7,GATTACCC,0.118
8,CAAAATCG,-0.0385
9,GACCCGAA,0.013
10,CCTAAGGC,-0.393
11,GTCTTCTA,-0.204
12,CGCTTTGC,-0.127
13,AGGCGCAT,-0.0966
14,AGTCACGG,0.417
15,CTAATTCC,-0.15
16,CACACGCC,0.196
17,AGGAGGTG,-0.227
18,ACAAGCTG,0.0668
19,CGAGATCC,-0.0376
20,CACCTAAA,-0.0371
21,AAGCAGTA,-0.0911
22,CATGGTCA,0.172
23,GCGTAGCC,-0.0467
24,ATCGAGAA,0.0911
25,AGAAAGGG,-0.215

row,Sequence,PBM E-score
1,GGCTAATA,-0.0251
2,CAAGCGCG,0.105
3,ATGGTCAA,0.0129
4,CGCAGACA,0.105
5,CATAGTGA,0.101
6,CATCCCAG,-0.0387
7,ATATTCCA,0.138
8,CATATACA,0.229
9,CTAGGTAC,-0.106
10,GGATGCCC,-0.308
11,ACCGAGCT,0.0466
12,GCGCTGAC,0.125
13,CTGCACCC,0.0202
14,ATGACGGC,0.0343
15,CGAGGAAA,-0.168
16,CTATTTTC,0.0035
17,AGATATGC,0.103
18,AAGCGTCC,-0.146
19,CAGCAGAG,0.065
20,GCTGGCCC,-0.114
21,CTTTACAC,0.0138
22,AAATCCTC,-0.00246
23,ATAACTCC,-0.0845
24,TCGTTGAA,-0.0916
25,AAGGTACA,-0.057

row,Sequence,PBM E-score
1,AAAAGTCA,0.0475
2,CGCTAAAG,-0.166
3,ACTTGTGC,-0.0632
4,CAAAGAGA,-0.299
5,CATTATCG,-0.0632
6,ATCGGTCA,-0.0294
7,GACGGTTA,0.0723
8,GAATAATA,0.0251
9,ACAAGGAT,-0.00316
10,CTACGTAC,0.0113
11,ACGGAACC,-0.0225
12,CTGGTGAA,-0.0534
13,CGTCCCCA,-0.129
14,GGATTTGA,-0.0695
15,CTCTGCAC,-0.101
16,AAAGCACT,0.0418
17,AATACGCC,-0.00077
18,CCGCTATC,0.071
19,AAAGCGAC,0.128
20,ATAAAAAG,0.0182
21,GGGAATAA,-0.0372
22,CCATCGCC,0.0886
23,CACGGTGC,0.0709
24,ACGACCCG,0.00714
25,ACGGGGGA,0.0431

row,Sequence,PBM E-score
1,CCTATACA,0.134
2,ACTTAATC,-0.0768
3,ACGATTGC,0.0187
4,GTCACCTA,0.0565
5,GTCAGTCA,0.267
6,CTGTATAC,-0.0296
7,GTACAGCA,-0.084
8,ATACACAT,0.176
9,ACAGATAC,0.087
10,AGGTTTTC,-0.164
11,AGCCTAGG,-0.299
12,ACCTTAAA,-0.214
13,AATTCGGT,0.0216
14,GGCATCAC,-0.0483
15,GGTATCAC,0.121
16,ACATACCG,0.145
17,AGCATCAT,-0.0183
18,TACGATAA,0.0471
19,CAAATTTC,-0.248
20,AACTCGCT,0.0478
21,AGCTCGCA,-0.0374
22,GACCACTC,0.169
23,GTACCTCA,0.0679
24,CTAGGCAC,-0.102
25,GCCTGATA,-0.156

row,Sequence,PBM E-score
1,AAAGGAAG,-0.0552
2,CTCGCGAA,-0.261
3,TACTCAGA,0.152
4,ATTAGAGC,0.138
5,ACATCGAT,0.133
6,ACTAAGGA,-0.0654
7,CTGACTGC,0.298
8,GTGGAGGA,0.0858
9,GACACGCC,0.122
10,AGCTGGTA,-0.0643
11,CTCAGTCA,0.362
12,GGAAATTA,-0.122
13,GAGAGCCC,-0.25
14,ACAGTCTG,-0.0561
15,GAGCCAGA,0.128
16,TCGCCCGA,-0.00197
17,CGGATAGC,-0.122
18,CCGTCAAA,-0.343
19,GATTTGAA,-0.132
20,TCGGCCAA,-0.101
21,CGAATGGC,0.124
22,CAGGGACG,-0.108
